“And” between values parts separate entries of the source, which are not always exact repeats. Identical values can stand only once. Out of some 350,000 compounds screened, about 31,000 (8.9%) were called active. This list was built around the results that the source calls inconclusive (neither active nor inactive); the mix of calls is not that of the screen. Calls follow the shape of the dose curve; as a rule, active = well fitted inhibition curve with a large enough effect; inconclusive = small, poorly fitted or top-dose-only effect; inactive = no such curve, though single readings can be large or run the other way. Where the call is inconclusive, the potency comes from a doubtful curve fit.
These compounds were tested against Histone-lysine N-methyltransferase EHMT2 (Homo sapiens) (UniProt Q96KQ7) (assay: qHTS Assay for Inhibitors of Histone Lysine Methyltransferase G9a). Details: G9a H3K9 monomethylation, AlphaScreen, 2 h; activity, negative = inhibition: at 59 µM (top of the series) unless noted.
In short: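 Quantitative HTS format: methyltransferase activity on a biotin-tagged H3K9 peptide is measured by AlphaScreen, using a rabbit anti-monomethyl-H3K9 antibody with streptavidin donor and anti-IgG acceptor beads. Final levels are 20 nM enzyme, 500 nM peptide, 20 uM SAM; 2 h RT.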
% is scaled to controls: 0 for no effect and ±100 for the full control effect; potency is read from the fitted curve at half-maximal effect; tags tell the direction and shape of the fitted curve.
Also: nearly all actives have a fitted effect of over 75% in size.

UniProt Q96KQ7, sequence (Q96KQ7 whole entry, looked up): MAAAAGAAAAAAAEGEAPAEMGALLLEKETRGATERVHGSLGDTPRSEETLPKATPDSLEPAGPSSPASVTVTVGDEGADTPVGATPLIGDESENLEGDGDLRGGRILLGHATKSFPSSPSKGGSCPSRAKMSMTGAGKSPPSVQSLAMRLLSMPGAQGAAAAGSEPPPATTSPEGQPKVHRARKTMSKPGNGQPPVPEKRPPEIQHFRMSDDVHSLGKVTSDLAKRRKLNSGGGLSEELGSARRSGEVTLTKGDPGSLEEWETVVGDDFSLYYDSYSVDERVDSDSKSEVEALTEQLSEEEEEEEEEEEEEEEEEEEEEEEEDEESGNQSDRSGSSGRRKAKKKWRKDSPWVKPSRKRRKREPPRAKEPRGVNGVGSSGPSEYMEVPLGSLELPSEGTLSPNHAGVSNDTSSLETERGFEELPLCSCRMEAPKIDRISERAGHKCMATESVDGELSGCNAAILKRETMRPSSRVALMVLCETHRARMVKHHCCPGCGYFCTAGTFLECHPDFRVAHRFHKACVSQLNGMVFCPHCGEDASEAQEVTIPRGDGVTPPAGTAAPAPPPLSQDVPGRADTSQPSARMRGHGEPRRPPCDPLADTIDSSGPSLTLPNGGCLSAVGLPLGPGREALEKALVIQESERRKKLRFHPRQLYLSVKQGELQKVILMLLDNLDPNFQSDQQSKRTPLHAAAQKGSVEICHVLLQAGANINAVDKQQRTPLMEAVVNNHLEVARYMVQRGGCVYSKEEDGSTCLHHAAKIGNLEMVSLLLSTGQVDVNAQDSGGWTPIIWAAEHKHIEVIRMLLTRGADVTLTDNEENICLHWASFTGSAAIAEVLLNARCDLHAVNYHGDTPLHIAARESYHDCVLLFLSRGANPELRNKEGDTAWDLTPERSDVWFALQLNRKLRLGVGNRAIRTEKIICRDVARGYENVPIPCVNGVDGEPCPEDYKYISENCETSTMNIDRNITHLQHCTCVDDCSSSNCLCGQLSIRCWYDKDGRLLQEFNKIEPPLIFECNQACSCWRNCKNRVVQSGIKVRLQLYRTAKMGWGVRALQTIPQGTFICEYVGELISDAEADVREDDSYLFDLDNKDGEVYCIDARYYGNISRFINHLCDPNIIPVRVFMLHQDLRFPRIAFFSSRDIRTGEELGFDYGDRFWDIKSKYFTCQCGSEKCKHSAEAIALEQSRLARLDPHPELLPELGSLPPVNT

| Structure (SMILES) | Potency | activity, negative = inhibition |
| --- | --- | --- |
| COc1cccc(OC)c1C(=O)N1CCN(Cc2ccccc2C(F)(F)F)CC1 | inconclusive: 1.58 µM [inhibitor, partial curve, poor fit] | – |
| Cc1cccc(NC(=S)N(C)C)c1C | – | inactive: 2.15% [at 102 µM] |
| CCCNC(=O)COC(=O)/C=C/c1ccc(C)o1 | active: 50.1 µM | – |
| Cc1ccc(Sc2ccc(N3CCCC(C(=O)Nc4ccc(Br)cc4)C3)nn2)cc1 (stereo unspecified) | – | inactive: 0.0685% |
| COC(=O)COC(=O)c1ccc(-n2nnnc2SC)cc1 | – | inactive: -2.97% [at 2.33 µM] |
| O=[N+]([O-])C1C(c2ccccc2)=NOC1c1ccccc1O (stereo unspecified) | inconclusive: 56.2 µM [inhibitor, single point] | – |
| COc1cccc(CNC(=O)c2ccc(-c3nc(CS(=O)c4ccccc4)c(C)o3)cc2)c1 (stereo unspecified) | inconclusive: 7.08 µM [inhibitor, partial curve, poor fit] | – |
| CSc1oc(-c2ccco2)nc1S(=O)(=O)c1ccc(F)cc1 | inconclusive: 10 µM [inhibitor, partial curve, poor fit] | – |
| COc1ccc(NC(=O)CSc2ncn[nH]2)c([N+](=O)[O-])c1 | – | inactive: 9.68% |
| COc1ccc(NC(=O)Cn2cnc3ccc(S(=O)(=O)N4CCC(C)CC4)cc3c2=O)c(OC)c1 | – | inactive: -27.1% |
| COc1ccc(-c2noc(CN3CCOCC3)n2)cc1OC | inconclusive: 2 µM [inhibitor, partial curve, poor fit] | – |
| NC(=O)c1ccsc1NC(=O)CS(=O)(=O)c1ccccc1 | – | inactive: -2.95% [at 102 µM] |
| COc1ccc2c(c1)Cc1sc(NC(=O)c3ccccc3C)nc1-2 | inconclusive: 14.1 µM [inhibitor, partial curve, poor fit] | – |
| Cc1cc(C)c(NC(=O)/C(=C/c2ccccc2)c2ccccc2)c(C)c1 | inconclusive: 2 µM [inhibitor, full curve] | – |
| O=C1c2ccccc2C(=O)c2c1cccc2N1CCN(Cc2ccccc2)CC1 | active: 10 µM | – |
| Cc1c(CNCC(C)c2ccccc2)c(C(=O)O)c(C)n1Cc1ccccc1 (stereo unspecified) | inconclusive: 39.8 µM [inhibitor, partial curve] | – |
| CC1CCC/C(=N\Nc2ccc(Cl)c(C(=O)O)c2)C1 (stereo unspecified) | active: 7.94 µM | – |
| CCSc1ncc(/C=N/Nc2ccccc2)n1C | active: 11.2 µM | – |
| CCOC(=O)c1ccc(N2C(=O)c3n[nH]c(-c4ccco4)c3C2c2ccc(OC)cc2OC)cc1 (stereo unspecified) | inconclusive: 12.6 µM [inhibitor, partial curve] | – |
| O=C(O)/C=C/c1ccc(O)c(O)c1 | active: 3.16 µM and active: 11.2 µM and active: 10.6 µM | – |
| CCn1nc(C)c(CNC(=O)c2cc(COc3ccccc3SC)on2)c1C | – | inactive: 73.2% [at 102 µM] |
| Brc1ccc(-n2cccc2/C=N/n2cnnc2)cc1 | – | inactive: -4.86% |
| O=C(CN1CCOCC1)Nc1ccc(OC(F)(F)F)cc1 | active: 7.08 µM | – |
| Cc1nnc(N2C(=O)C(O)=C(C(=O)c3ccco3)C2c2ccc(C(C)(C)C)cc2)s1 (stereo unspecified) | inconclusive: 39.8 µM [inhibitor, single point] | – |

| Structure (SMILES) | Potency | activity, negative = inhibition |
| --- | --- | --- |
| CCN(CC)c1ccc(NC(=O)Cn2ncc3c(C)n(Cc4ccccc4F)c(C)c3c2=O)c(C)c1 | inconclusive: 5.01 µM [inhibitor, full curve, poor fit] | – |
| COc1ccc(/C=C2/C(=O)ON=C2C)cc1Cl | active: 15.8 µM | – |
| O=[N+]([O-])c1ccc(/C=C/C2=NN(c3ccccc3)C(c3ccco3)C2)cc1 (stereo unspecified) | active: 22.4 µM | – |
| CC1CCC(NCCNC(=O)c2ccco2)CC1 (stereo unspecified) | active: 35.5 µM | – |
| C=CCc1cc(Cl)ccc1OCCOCCNC(C)(C)C | active: 25.1 µM | – |
| Cc1cccc(C)c1-n1ncc(C(=O)NCCCN2CCCCC2)c1C1CCN(C(=O)OC(C)(C)C)CC1 | – | inactive: -25% |
| N#Cc1ccc(/C=C/C(=O)c2ccc3c(c2)OCO3)cc1 | – | inactive: -2.89% [at 102 µM] |
| O=C(CN1CCN(c2ccccc2Cl)CC1)NC1CCCc2ccccc21 (stereo unspecified) | active: 8.91 µM | – |
| COc1ccccc1NC(=O)CCc1nc2sc3c(c2c(=O)[nH]1)CCCC3 | inconclusive: 50.1 µM [inhibitor, partial curve] | – |
| O=C(O)c1[nH]c2ccccc2c1C(c1c(F)cccc1Cl)c1c(C(=O)O)[nH]c2ccccc12 | inconclusive: 89.1 µM [inhibitor, single point] | – |
| CCc1nnc2n1N=C(c1ccc([N+](=O)[O-])cc1)CS2 | active: 35.5 µM | – |
| COCCN=C1N[C@@H](c2cccc(C(F)(F)F)c2)C(C(=O)OC)=C(C)N1Cc1ccccc1 | inconclusive: 89.1 µM [inhibitor, single point] | – |
| COc1cc(C(=O)Nc2cccc(S(=O)(=O)NCc3ccco3)c2)cc(OC)c1OC | – | inactive: -7.46% [at 12.7 µM] |
| CC#CCN1c2ccccc2[C@]23C[C@@H](C(=O)OC)N(C(=O)c4cc(C)oc4C)C2=NC(C(=O)OC)=C(C(=O)OC)[C@H]13 | inconclusive: 25.1 µM [inhibitor, single point] | – |
| CCOc1ccc2[nH]c(=O)c(C(c3nnnn3CC3CCCO3)N3CCc4ccccc4C3)cc2c1 (stereo unspecified) | inconclusive: 25.1 µM [inhibitor, single point] | – |
| O=C(Nc1ccc(N2CCN(c3ncccc3C(F)(F)F)CC2)nc1)c1cccs1 | inconclusive: 44.7 µM [inhibitor, partial curve] | – |
| C(=N\N1CCN(c2ccccc2)CC1)/c1ccccc1 | inconclusive: 35.5 µM [inhibitor, partial curve, poor fit] | – |
| CC(/C=C1\SC(=S)N(NC(=O)c2ccncc2)C1=O)=C\c1ccccc1 | inconclusive: 44.7 µM [inhibitor, partial curve, poor fit] | – |
| CCCc1cc(=O)oc2c(C)c(OCC(=O)c3ccc(N4CCCC4)cc3)ccc12 | inconclusive: 89.1 µM [inhibitor, partial curve, poor fit] | – |
| O=C(NC(=S)Nc1ccc2oc(=O)ccc2c1)c1cccc(Cl)c1 | inconclusive: 89.1 µM [inhibitor, single point] | – |
| CC(=O)Nc1ccc(NC(=O)c2cc(-n3cnnc3)ccc2Cl)cc1 | – | inconclusive: -56.8% [inhibitor] |
| CC1=CC(C)(C)N(C(=O)c2ccc(F)cc2)c2cc3c(cc21)OCO3 | inconclusive: 7.94 µM [inhibitor, single point] | – |
| CCOc1ccc(CNC(=O)C2CCN(S(=O)(=O)c3ccc4c(c3)CCCC(=O)N4)CC2)cc1 | inconclusive: 79.4 µM [inhibitor, single point] | – |
| CS(=O)(=O)c1ccc2nc(NC(=O)CN3CCCCCC3)sc2c1 | active: 17.8 µM | – |

| Structure (SMILES) | Potency | activity, negative = inhibition |
| --- | --- | --- |
| CC(C)Sc1nc(SCC(=O)NCc2ccco2)c2c3c(sc2n1)COC(C)(C)C3 | inconclusive: 39.8 µM [inhibitor, single point] | – |
| COC(=O)c1ccc(NC(=O)CSc2n[nH]c(-c3ccccc3)n2)cc1 | inconclusive: 39.8 µM [inhibitor, single point] | – |
| CCc1cccc(OCCn2ccnc2)c1 | active: 8.91 µM | – |
| Cc1ccc(NC(=O)Cn2c(O)c(N=NC(=O)c3cc4ccccc4cc3O)c3ccccc32)cc1 | inconclusive: 20 µM [inhibitor, single point] | – |
| Cc1cccc(Oc2ccccc2N)c1 | – | inconclusive: -66.9% [inhibitor] |
| CCOC(=O)c1cc2c(=O)n3ccccc3nc2n(Cc2ccco2)c1=NC(=O)c1ccc(Br)cc1 | – | inactive: -4.04% |
| CSc1nnc(-c2ccccc2)c(-c2ccccc2)n1 | – | inactive: 64.6% |
| O=C1N/C(=N\c2ccccn2)SC1Cc1ccc(Cl)cc1 (stereo unspecified) | inconclusive: 89.1 µM [inhibitor, single point] | – |
| COc1ccc(C)cc1NC(=O)COc1cc(=O)n(C)c2ccccc12 | – | inactive: -1.46% |
| COc1ccc(NC(=O)c2ccco2)cc1NC(=O)COc1cccc(C)c1C | – | inactive: 13.8% |
| CCc1ccc(NC(=O)CN(C)S(=O)(=O)c2ccc3c(c2)c(=O)n(C)c(=O)n3C)cc1 | – | inactive: -4.09% |
| CCCCn1nnnc1SCC(=O)Nc1ccc(F)cc1 | – | inactive: 0.548% [at 102 µM] |
| O=C(CSc1oc(-c2ccccc2)nc1S(=O)(=O)c1ccc(Br)cc1)c1ccccc1 | inconclusive: 25.1 µM [inhibitor, partial curve, poor fit] | – |
| CCOc1ccc(CCNC(=O)COC(=O)CNC(=O)c2ccc(Br)o2)cc1OCC | inconclusive: 89.1 µM [inhibitor, partial curve, poor fit] | – |
| Cc1cc(=O)oc2cc(OCC(=O)Nc3ccc(N4CCC(C)CC4)cc3)ccc12 | inconclusive: 44.7 µM [inhibitor, partial curve, poor fit] | – |
| Cc1ccccc1-c1nc(SCC(=O)NCc2ccc(F)cc2)c2c(=O)n(C)c(=O)n(C)c2n1 | – | inactive: -4.46% |
| C/C(=N\Nc1cccc([N+](=O)[O-])c1)c1ccccc1O | inconclusive: 44.7 µM [inhibitor, partial curve, poor fit] | – |
| CCOc1ccc(NC(=NCc2ccc3c(c2)OCO3)SC2CC(=O)N(c3ccc(C(=O)O)cc3)C2=O)cc1 (stereo unspecified) | – | inactive: -4.24% |
| CC1(C)Cc2c(ccc3ccccc23)/C(=C/C(=O)N2CCCCC2)N1 | inconclusive: 0.631 µM [inhibitor, partial curve, poor fit] | – |
| O=C(Cn1nnc2ccccc21)Nc1ccc(Cl)cn1 | – | inactive: 2.15% [at 102 µM] |
| O=C(CSc1nnc(Cc2cccs2)n1-c1ccccc1)NCc1ccc2c(c1)OCO2 | inconclusive: 50.1 µM [inhibitor, partial curve, poor fit] | – |
| Cn1cccc1Cc1nnc(SCC(=O)NCc2ccco2)n1-c1ccc(F)cc1 | inconclusive: 44.7 µM [inhibitor, partial curve, poor fit] | – |
| O=C(Nc1ccc(Br)cc1)c1ccc(F)c(S(=O)(=O)NC2CCCCCC2)c1 | – | inactive: 4.27% |

Reference: PubChem BioAssay AID504332 (National Center for Advancing Translational Sciences (NCATS), 2011)
